# Data: the supplement of paper PMC8728848
# The list shows a part of the results.
# B1: Gal 7 (Canis lupus) (protein)
# chain: MAGSSNVPHKTSLPEGIRVGTVMRIRGVVPNKAGRFYVNLLCGEAPGSEAALHFNPRLDESTVVFNTLEQGAWGREERGTGIPFQRGQPFDVLLIATDEGFKAVVGDSEYHHFRYRIPPARVRLLEVGGDLQLESVSVF
# Legend:
# Assay in all cases: glycan array binding signal (z-score within array); higher = stronger binding
# Settings in all cases: glycan notation: IUPAC condensed, linker removed
# [1] = target: Neu5Ac(a2-3)Gal(b1-4)[Fuc(a1-3)]GlcNAc(b1-3)GalNAc
# Method in brief: (§1)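 From the Consortium for Functional Glycomics database, 3228 arrays were curated, keeping only those whose protein sequence was available. Binding is given as a within-array Z-score averaged across arrays sharing a protein sequence and across linkers. Negative Z-scores can be read as non-binding.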
# [2] = target: Neu5Ac(a2-3)Gal(b1-4)[Fuc(a1-3)]GlcNAc(b1-6)[Gal(b1-3)]GalNAc
# Method in brief: as §1
# [3] = target: Neu5Ac(a2-3)Gal(b1-4)[Fuc(a1-3)]GlcNAc(b1-6)[Neu5Ac(a2-3)Gal(b1-3)]GalNAc
# Method in brief: as §1
# [4] = target: Neu5Ac(a2-3)Gal(b1-4)[Fuc(a1-3)]GlcNAc6S
# Method in brief: as §1
# [5] = target: Neu5Ac(a2-3)Gal6S(b1-4)GlcNAc
# Method in brief: as §1
# [6] = target: Neu5Ac(a2-3)Gal6S(b1-4)[Fuc(a1-3)]GlcNAc
# Method in brief: as §1
# Neu5Ac(a2-3)GalNAc = target: Neu5Ac(a2-3)GalNAc
# Method in brief: as §1
# [7] = target: Neu5Ac(a2-3)GalNAc(b1-4)GlcNAc
# Method in brief: as §1
# [8] = target: Neu5Ac(a2-3)[GalNAc(b1-4)]Gal(b1-4)Glc
# Method in brief: as §1
# [9] = target: Neu5Ac(a2-3)[GalNAc(b1-4)]Gal(b1-4)GlcNAc
# Method in brief: as §1
# [10] = target: Neu5Ac(a2-3)[GalNAc(b1-4)]Gal(b1-4)GlcNAc(b1-3)GalNAc
# Method in brief: as §1
# [11] = target: Neu5Ac(a2-3)[Neu5Ac(a2-6)]GalNAc
# Method in brief: as §1
# Neu5Ac(a2-6)Gal = target: Neu5Ac(a2-6)Gal
# Method in brief: as §1
# [12] = target: Neu5Ac(a2-6)Gal(b1-3)GlcNAc(b1-3)[Gal(b1-4)GlcNAc(b1-6)]Gal(b1-4)Glc
# Method in brief: as §1
# Neu5Ac(a2-6)Gal(b1-4)Glc = target: Neu5Ac(a2-6)Gal(b1-4)Glc
# Method in brief: as §1
# [13] = target: Neu5Ac(a2-6)Gal(b1-4)GlcNAc
# Method in brief: as §1
# [14] = target: Neu5Ac(a2-6)Gal(b1-4)GlcNAc(b1-2)Man(a1-3)Man(b1-4)GlcNAc(b1-4)GlcNAc
# Method in brief: as §1
# [15] = target: Neu5Ac(a2-6)Gal(b1-4)GlcNAc(b1-2)Man(a1-3)[Gal(b1-4)GlcNAc(b1-2)Man(a1-6)]Man(b1-4)GlcNAc(b1-4)GlcNAc
# Method in brief: as §1
# [16] = target: Neu5Ac(a2-6)Gal(b1-4)GlcNAc(b1-2)Man(a1-3)[GlcNAc(b1-2)Man(a1-6)]Man(b1-4)GlcNAc(b1-4)GlcNAc
# Method in brief: as §1
# [17] = target: Neu5Ac(a2-6)Gal(b1-4)GlcNAc(b1-2)Man(a1-3)[GlcNAc(b1-2)Man(b1-4)GlcNAc(b1-2)Man(a1-6)]Man(b1-4)GlcNAc(b1-4)GlcNAc
# Method in brief: as §1
# [18] = target: Neu5Ac(a2-6)Gal(b1-4)GlcNAc(b1-2)Man(a1-3)[Man(a1-6)]Man(b1-4)GlcNAc(b1-4)GlcNAc
# Method in brief: as §1
# [19] = target: Neu5Ac(a2-6)Gal(b1-4)GlcNAc(b1-2)Man(a1-3)[Neu5Ac(a2-6)Gal(b1-4)GlcNAc(b1-2)Man(a1-6)]Man(b1-4)GlcNAc(b1-4)GlcNAc
# Method in brief: as §1
# [20] = target: Neu5Ac(a2-6)Gal(b1-4)GlcNAc(b1-2)Man(a1-6)Man(b1-4)GlcNAc(b1-4)GlcNAc
# Method in brief: as §1
# [21] = target: Neu5Ac(a2-6)Gal(b1-4)GlcNAc(b1-2)Man(a1-6)[Gal(b1-4)GlcNAc(b1-2)Man(a1-3)]Man(b1-4)GlcNAc(b1-4)GlcNAc
# Method in brief: as §1
# [22] = target: Neu5Ac(a2-6)Gal(b1-4)GlcNAc(b1-2)Man(a1-6)[GlcNAc(b1-2)Man(a1-3)]Man(b1-4)GlcNAc(b1-4)GlcNAc
# Method in brief: as §1
# [23] = target: Neu5Ac(a2-6)Gal(b1-4)GlcNAc(b1-2)Man(a1-6)[Man(a1-3)]Man(b1-4)GlcNAc(b1-4)GlcNAc
# Method in brief: as §1
# [24] = target: Neu5Ac(a2-6)Gal(b1-4)GlcNAc(b1-3)Gal(b1-3)GlcNAc
# Method in brief: as §1
# [25] = target: Neu5Ac(a2-6)Gal(b1-4)GlcNAc(b1-3)Gal(b1-4)GlcNAc
# Method in brief: as §1
binder,measurement,setting,value
B1,glycan array binding signal (z-score),[1],-0.14
same,glycan array binding signal (z-score),[2],-0.202
same,glycan array binding signal (z-score),[3],-0.193
same,glycan array binding signal (z-score),[4],-0.206
same,glycan array binding signal (z-score),[5],-0.198
same,glycan array binding signal (z-score),[6],-0.215
same,glycan array binding signal (z-score),Neu5Ac(a2-3)GalNAc,-0.213
same,glycan array binding signal (z-score),[7],-0.213
same,glycan array binding signal (z-score),[8],-0.207
same,glycan array binding signal (z-score),[9],-0.212
same,glycan array binding signal (z-score),[10],-0.198
same,glycan array binding signal (z-score),[11],-0.2
same,glycan array binding signal (z-score),Neu5Ac(a2-6)Gal,-0.201
same,glycan array binding signal (z-score),[12],-0.18
same,glycan array binding signal (z-score),Neu5Ac(a2-6)Gal(b1-4)Glc,-0.208
same,glycan array binding signal (z-score),[13],-0.212
same,glycan array binding signal (z-score),[14],-0.208
same,glycan array binding signal (z-score),[15],-0.212
same,glycan array binding signal (z-score),[16],-0.205
same,glycan array binding signal (z-score),[17],-0.17
same,glycan array binding signal (z-score),[18],-0.217
same,glycan array binding signal (z-score),[19],-0.203
same,glycan array binding signal (z-score),[20],-0.202
same,glycan array binding signal (z-score),[21],-0.212
same,glycan array binding signal (z-score),[22],-0.211
same,glycan array binding signal (z-score),[23],-0.212
same,glycan array binding signal (z-score),[24],3.85
same,glycan array binding signal (z-score),[25],1.54
